# Measured values as given in article PMC4336329 (PLoS ONE, 2015).
# About 2,200 (0.71%) of roughly 310,000 compounds showed an effect of 50% or more. The effect is printed as a negative number. The list shows a part of the results. Where a SMILES comes first, the peptide text is derived from it. The star is where a group is joined. Cbz = O=C(OCc1ccccc1)*; Boc = CC(C)(C)OC(=O)*
# Target: human ether-à-go-go-related gene (hERG) potassium channel (human, UniProt Q12809)
# Assay: primary screen, population patch clamp on CHO cells stably expressing hERG
# human ether-à-go-go-related gene (hERG) potassium channel, sequence (Q12809 whole entry, looked up): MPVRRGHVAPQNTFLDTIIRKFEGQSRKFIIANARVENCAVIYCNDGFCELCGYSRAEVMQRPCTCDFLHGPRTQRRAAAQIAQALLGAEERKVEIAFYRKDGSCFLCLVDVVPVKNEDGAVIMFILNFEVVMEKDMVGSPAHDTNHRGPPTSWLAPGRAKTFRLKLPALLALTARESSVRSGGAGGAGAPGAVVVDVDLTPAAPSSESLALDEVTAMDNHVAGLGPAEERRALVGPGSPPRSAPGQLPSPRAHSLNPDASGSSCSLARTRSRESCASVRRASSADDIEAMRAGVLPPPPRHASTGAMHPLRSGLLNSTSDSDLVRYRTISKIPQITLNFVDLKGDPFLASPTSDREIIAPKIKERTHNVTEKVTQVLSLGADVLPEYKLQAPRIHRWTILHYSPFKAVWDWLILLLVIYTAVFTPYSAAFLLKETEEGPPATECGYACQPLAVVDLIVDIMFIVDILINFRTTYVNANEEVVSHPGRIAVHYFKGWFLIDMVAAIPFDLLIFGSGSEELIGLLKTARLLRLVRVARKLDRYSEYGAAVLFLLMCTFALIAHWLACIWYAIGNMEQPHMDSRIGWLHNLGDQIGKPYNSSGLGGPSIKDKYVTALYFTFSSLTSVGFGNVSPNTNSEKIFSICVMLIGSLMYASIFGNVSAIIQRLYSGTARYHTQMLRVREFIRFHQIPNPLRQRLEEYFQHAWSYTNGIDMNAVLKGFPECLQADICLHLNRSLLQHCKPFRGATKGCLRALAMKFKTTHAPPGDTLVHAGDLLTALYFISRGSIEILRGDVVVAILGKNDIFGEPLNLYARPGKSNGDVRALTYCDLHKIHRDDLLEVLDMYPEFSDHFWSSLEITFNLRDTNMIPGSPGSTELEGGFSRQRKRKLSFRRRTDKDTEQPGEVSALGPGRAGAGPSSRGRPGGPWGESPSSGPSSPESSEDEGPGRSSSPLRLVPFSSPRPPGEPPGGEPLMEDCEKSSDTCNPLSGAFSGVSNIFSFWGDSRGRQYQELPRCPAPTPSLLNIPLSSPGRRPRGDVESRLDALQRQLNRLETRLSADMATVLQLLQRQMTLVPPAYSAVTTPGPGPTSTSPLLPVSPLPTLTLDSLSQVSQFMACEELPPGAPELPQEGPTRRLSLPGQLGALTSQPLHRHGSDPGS
row,Compound,"hERG current change (%, negative = inhibition) at 1uM"
1,Cc1ccc(S(=O)(=O)CC(=O)NC2CC2)cc1,6.09%
2,O=C1OC(/C(=C\NCc2ccccc2)[N+](=O)[O-])c2ccccc21 (stereo not shown),6.65%
3,CCc1noc(C)c1C(=O)NC1CC(C)(C)Cc2c1cnn2-c1ccccc1 (stereo not shown),8.54%
4,Nc1ccc(C(=O)NC2CCSc3ccccc32)cc1[N+](=O)[O-] (stereo not shown),-0.154%
5,O=C(Cn1c(-c2cncs2)nc2ccccc21)NCc1ccccc1,16%
6,C=CCNc1oc(-c2ccc(OCC)cc2)nc1C#N,-8.94%
7,CCOc1ccc2[nH]c(=O)c(CN(Cc3ccco3)C(CC)c3nnnn3Cc3ccccc3)cc2c1 (stereo not shown),-3.8%
8,COCCNc1c(-c2ccc(O)cc2)nc2ccc(Cl)cn12,-0.888%
9,COC(=O)c1ccc(Sc2ccccc2NS(=O)(=O)c2ccc(NC(C)=O)cc2)nc1,-1.49%
10,N#CCCn1cc(C(CC(=O)c2ccc(Br)cc2)C(=O)O)c2ccccc21 (stereo not shown),10.7%
11,CC1=NN(c2ccc(S(=O)(=O)O)cc2C)C(=O)C1,26.3%
12,COc1ccccc1OCC(=O)Nc1ccc(S(=O)(=O)N2CCCCCC2)cc1,7.07%
13,COCCn1c(SCC(=O)N2CCCc3ccccc32)nc2ccccc2c1=O,-22.5%
14,CCNC(=O)C12CCC(C)(c3nc4cc(C)c(C)cc4nc31)C2(C)C (stereo not shown),2.34%
15,O=C(O)CN1C(=O)/C(=C/c2ccccc2Br)Oc2ccccc21,3.25%
16,COc1cc(S(=O)(=O)N(Cc2cccs2)CC2CCCO2)ccc1-n1cnnn1 (stereo not shown),-5.93%
17,Cc1ccc(S(=O)(=O)NCC2(c3ccccc3)CCOCC2)cc1,8.36%
18,CCCCC(CC)C(=O)Oc1ccc(O)c(C(C)(C)C)c1 (stereo not shown),8.9%
19,COc1cc(/C=C/c2onc(C)c2[N+](=O)[O-])cc(OC)c1OC,7.57%
20,CC(=O)c1ccc(OCC(O)CN2CCN(Cc3ccc4c(c3)OCO4)CC2)cc1.Cl (stereo not shown),-22.3%
21,Cc1cccc(C)c1NC(=O)CN1CCNCC1,5.44%
22,COc1ccc(OC)c2c(C)cc(N3CCN(C(=O)c4ccc(C)cc4)CC3)nc12,6.17%
23,COC(=O)/N=C/c1c(NCc2ccccc2)nc2c(C)cccn2c1=O,13.5%
24,COc1ccc(C(=O)OC(C)C(=O)NC(C)CCc2ccccc2)c(OC)c1 (stereo not shown),8%
25,Cc1cc(OC(C)C(=O)N2C[C@H]3C[C@@H](C2)c2cccc(=O)n2C3)c2c(C)c(C)c(=O)oc2c1 (stereo partly shown),11.9%
26,CCn1cc(C2=NOC(C(=O)Nc3ccccc3C(=O)OC)C2)c(C)n1 (stereo not shown),-4.35%
27,CCN(CC)S(=O)(=O)c1cc(C(=O)Nc2cc(Cl)ccc2N2CCN(C)CC2)ccc1Cl,-3.74%
28,CCOc1ccc(OCC)c(NC(=O)C2CCCN(S(=O)(=O)c3c(C)n[nH]c3C)C2)c1 (stereo not shown),10.1%

row,Compound,"hERG current change (%, negative = inhibition) at 1uM"
1,Nn1c(SCC(=O)Nc2ccc(S(N)(=O)=O)cc2)nnc1C(F)(F)F,2.46%
2,COc1ccc(C(=O)Nc2ccc(C(=O)N3CCOCC3)cc2)cc1OC,11.3%
3,Cn1nnnc1SCC(=O)Nc1ccc(Oc2ccc(Cl)cc2)cc1,9.74%
4,O=[N+]([O-])c1ccc(/C=N/Nc2nc(N3CCCCCC3)nc(N3CCCCCC3)n2)o1,7.97%
5,CC1CCCN(S(=O)(=O)c2ccc3c(c2)c(=O)nc2ccccn23)C1 (stereo not shown),18.1%
6,CCC(=O)N1CCN(c2ccccc2NC(=O)COc2cccc(C)c2C)CC1,11.8%
7,CC(=O)Oc1ccc(C(=O)Nc2ccccc2C(=O)N2CCCC2)cc1,17.8%
8,CCCOc1ccccc1-c1nc2c([nH]1)c(=O)[nH]c(=O)n2C,5.15%
9,CC1CN(C(=O)CCC(=O)NCc2ccc(Cl)cc2)c2ccccc2O1 (stereo not shown),-9.24%
10,CC1(C)CC(=O)c2cnc(N3CCc4ccccc43)nc2C1,9.33%
11,CCOc1ccc(S(=O)(=O)Nc2cccc(C(=O)NCCCn3ccnc3)c2)cc1,14.8%
12,O=C(NCc1ccco1)c1n[nH]c(=O)c2ccccc12,11.8%
13,Cc1nc(CCNC(=O)Cc2ccc(F)cc2)cs1,17.5%
14,CC1CCN(C(=O)c2cc3ccccc3c(=O)o2)CC1,7.65%
15,Cn1c(N)c(C(=O)COc2ccc(Cl)cc2Cl)c(=O)n(C)c1=O,12.3%
16,COC(=O)C1=C(C)NC(=O)NC1c1ccsc1 (stereo not shown),5.08%
17,CC1CCC(NS(=O)(=O)c2ccc(N3CCCC3=O)cc2)CC1 (stereo not shown),15.9%
18,COc1ccc(CC(=O)Nc2ccc(S(=O)(=O)Nc3nccc(C)n3)cc2)cc1,-1.21%
19,CCCC(=O)OCC(=O)Nc1cc(Cl)ccc1[N+](=O)[O-],14.7%
20,CCOC(=O)c1cc(C(=O)NN)c(C)nc1C,11.5%
21,CCN(CC)c1ncnc2c1cnn2C,17.1%
22,CC(C)(C)OC(=O)NCCCC[C@H](NC(=O)[C@H](Cc1c[nH]c2ccccc12)NC(=O)OCc1ccccc1)C(=O)O (Cbz-Trp-Lys(Boc)-OH),18.1%
23,COC(=O)c1cc(C(=O)OC)cc(N2C(=O)CC(NNC(=O)c3ccccc3Br)C2=O)c1 (stereo not shown),4.08%
24,Cc1ccc(N(CC(=O)NCc2ccccc2)C(=O)CCC(=O)Nc2ccccn2)cc1,-11.1%
25,CC(=O)Nc1ccc(S(=O)(=O)Nc2nc(C)nc3sc4c(c23)CCC4)cc1,7.61%
26,COc1ccccc1OCCSc1nnnn1-c1ccc(C)cc1,2.05%
27,Cc1coc(C)c1C(=O)CC1(O)C(=O)Nc2cc(Cl)cc(Cl)c21 (stereo not shown),9.39%
